A number of entries come with more than one value. The list is limited to them. An entry can have further records. Results that share an entry repeat one measurement in other runs, samples, wells, individuals or studies. Signs of the kind (2×) stand for listed records that agree.
Tested on: SYO-1 tumor spheroids, viability % test/control
Assay: Anticancer human tumor SYO-1 cell line growth inhibition;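 further: spheroids exposed to agents for 7 days before viability read; 100% = DMSO vehicle control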
Details: stronger effect = lower value, spheroids with HUVEC and MSC
Description: Multicellular complex tumor spheroid response to DNA repair inhibitors in combination with DNA-damaging drugs
This study explores the anticancer activities of DNA-damaging drugs and inhibitors of DNA damage repair, both as single agents and in combinations. Complex tumor spheroids comprised of malignant cells, endothelial cells and mesenchymal stem cells served as an in vitro model for human solid tumors. This model system incorporates physiologically relevant features and patient-derived or established malignant cell lines with clinically relevant genetic alterations from many tumor types. Twenty-six patient-derived or established malignant cell lines were evaluated representing sarcoma, melanoma, small cell lung cancer (SCLC), non-small cell lung cancer (NSCLC), as well as bladder, ovarian and pancreatic cancers. The concentration ranges selected for each drug and investigational agent were based upon clinically achievable concentrations if the clinical Cmax of the agent was known.
Compounds. The drugs and compounds olaparib (NSC753686), talazoparib (NSC767125), berzosertib (NSC777718), elimusertib (NSC800525), nedisertib (NSC802822), VX-984 (NSC792969), AZD-1390 (NSC803789), temozolomide (NSC362856), topotecan (NSC609699), trabectedin (NSC813783), staurosporine (NSC755774), and gemcitabine (NSC613327) were obtained from the National Cancer Institute (NCI) Developmental Therapeutics Program Chemical Repository. The FDA-approved anticancer drug set is available from the Developmental Therapeutics Program at https://dtp.cancer.gov/organization/dscb/obtaining/available_plates.htm. […] The stock solutions were prepared in dimethyl sulfoxide (DMSO, Sigma-Aldrich, St. Louis, MO, cat. D2650) at 400-fold the tested concentration and stored at -70 degrees C. Prior to their use, the stock solutions were diluted in fresh medium and the final DMSO concentration in the assay was 0.25% (v/v). All drugs and investigational agents were tested over a range starting from a high concentration at or near the clinical Cmax and decreasing in half-log increments. If the clinical Cmax for an agent had not been determined, the highest concentration tested was 10 microM.
Cell Lines. The patient-derived cancer cell (PDC) lines: 156681-154-R-J1-PDC, 283228-195-R-J1-PDC, 287954-098-R-J1-PDC, 292921-168-R-J2-PDC, 349418-098-R-PDC, 425362-245-T-J1-PDC, 556581-035-R-J1-PDC, and BL0293-F563-PDC were received from the NCI Patient-Derived Models Repository (PDMR, https://pdmr.cancer.gov). The established cell lines HS-SY-2 (RRID:CVCL_8719), MPNST, and SYO-1 (RRID:CVCL_7146) were obtained from the Sloan Kettering Institute. The alveolar soft parts sarcoma cell line ASPS-1 (RRID:CVCL_S738) was established at the NCI and grown from internal seed stocks. […]

Question: CC1COCCN1c1cc(-c2ccnn2C)c2ccnc(-c3ccn[nH]3)c2n1 (centres undefined) was tested. Which viability, T/C (compound alone 0.0316 µM) did it give?
Answer: 47.1%, 50.7%, 9.73%

Question: With Cn1nnc2c(C(N)=O)ncn2c1=O as the molecule, how does the viability, T/C (compound alone 100 µM) read?
Answer: 103, 105, 113, 44.1, 107 (2×), 109, 108, 111% (2×)

Question: For COc1cc2c(cc1O)CCNC21CSC2c3c(OC(C)=O)c(C)c4c(c3C(COC1=O)N1C(O)C3Cc5cc(C)c(OC)c(O)c5C(C21)N3C)OCO4 (centres undefined), which viability, T/C (compound 94.9 pM) is on record?
Answer: 95.3, 96.7, 99.1, 88.1, 96.4, 91.4, 94.7, 72.5, 94.8, 97.4%

Question: How did the viability, T/C (compound alone 0.00949 µM) turn out when CC[C@@]1(O)C(=O)OCc2c1cc1n(c2=O)Cc2cc3c(CN(C)C)c(O)ccc3nc2-1 was run?
Answer: 10.3, 7.39, 35.6, 17, 13.9, 30.3, 32.3, 22.4, 28.5, 27.9%

From PubChem BioAssay AID1845219 (Molecular Pharmacology Branch, DTP, NCI, 2023)
